We go through 19 compounds from ChEMBL document CHEMBL5606460, “ASAP - DENV-2 NS2B-NS3 protease fluorescence single point” (2024).

The target in this experiment is Genome polyprotein (dengue virus type 2) (UniProt P29990).
The mark [1] stands for this setting: Thailand/16681/1984, Concentration 25.0 uM, Number of replicates 1.0.

Each structure is given as a SMILES string. The campaign covered roughly 2,000 compounds. About 110 (5.5%) showed an effect of 50% or more. The list shows a part of the results.

By inhibition is commonly meant the change of the read-out against control, counted positive when it falls. As for `N[C@@H]1CC[C@H](NC(=O)[C@@H](NC(=O)OCc2ccccc2)c2ccc(OCc3ccccc3)cc2)C1`, the inhibition was -8.26% (Thailand/16681/1984, Concentration 49.5 uM, Number of replicates 2.0, Standard deviation 1.2434035121264484 %); -6.19% (Thailand/16681/1984, Concentration 99.01 uM, Number of replicates 2.0, Standard deviation 0.8566380677318021 %); 3.51% (Thailand/16681/1984, Concentration 198.0 uM, Number of replicates 2.0, Standard deviation 2.0731918457206886 %).

Consider `CN1CCN(c2ccc(CCNS(=O)(=O)c3ccc(F)cc3)cc2)CC1`, for which the inhibition reads like this: (Thailand/16681/1984, Concentration 49.5 uM, Number of replicates 2.0, Standard deviation 0.7996821653533323 %) -1.41%; (Thailand/16681/1984, Concentration 99.01 uM, Number of replicates 2.0, Standard deviation 0.7245815652705206 %) -0.422%; (Thailand/16681/1984, Concentration 198.0 uM, Number of replicates 2.0, Standard deviation 1.3286313097517835 %) 0.775%.

As for `CN(Cc1ccccc1)Cc1cccc(NC(=O)c2ccc3c(c2)B(O)OC3)c1`, the inhibition is, setting by setting: (Thailand/16681/1984, Concentration 49.5 uM, Number of replicates 2.0, Standard deviation 2.1199690313026864 %) 0.247%; (Thailand/16681/1984, Concentration 99.01 uM, Number of replicates 2.0, Standard deviation 1.45611694434521 %) -1.12%; (Thailand/16681/1984, Concentration 198.0 uM, Number of replicates 2.0, Standard deviation 3.0656800379431695 %) 1.49%.

With `Cc1cc(CO)c2cccc(NCc3ccc(S(N)(=O)=O)cc3)c2n1`, the inhibition is 8.26% (Thailand/16681/1984, Concentration 49.95 uM, Number of replicates 2.0, Standard deviation 1.2377055953825635 %) and 17.2% (Thailand/16681/1984, Concentration 99.9 uM, Number of replicates 2.0, Standard deviation 1.691711110367126 %).

Consider `CSCC[C@H](NC(=O)OC(C)(C)C)C(=O)N1CCC[C@H]1C(=O)Nc1cccc(CN)c1`, for which the inhibition (Thailand/16681/1984, Concentration 49.5 uM, Number of replicates 2.0, Standard deviation 1.5173934729468572 %) was -0.275%; the inhibition (Thailand/16681/1984, Concentration 99.01 uM, Number of replicates 2.0, Standard deviation 1.5126097634940223 %) turned out to be 0.43%; the inhibition (Thailand/16681/1984, Concentration 198.0 uM, Number of replicates 2.0, Standard deviation 2.114878998554874 %) was found to be 1.09%.

On to `Cc1cc(CO)c2cccc(NC(=O)C3CCC(CN)CC3)c2n1` (stereo not given), for which the inhibition runs as follows: (Thailand/16681/1984, Concentration 49.95 uM, Number of replicates 2.0, Standard deviation 1.7984525560806044 %) 96%; (Thailand/16681/1984, Concentration 99.9 uM, Number of replicates 2.0, Standard deviation 0.012834221133749364 %) 98.2%.

In the case of `CC(C)(C)OC(=O)N1CCOC[C@H]1CNCc1nnc2ccccn12`, the inhibition was -2.66% (Thailand/16681/1984, Concentration 49.5 uM, Number of replicates 2.0, Standard deviation 3.6636813935617547 %); -2.48% (Thailand/16681/1984, Concentration 99.01 uM, Number of replicates 2.0, Standard deviation 2.060655687099608 %); -1.72% (Thailand/16681/1984, Concentration 198.0 uM, Number of replicates 2.0, Standard deviation 3.020799081222525 %).

For `O=Cc1ccc(N2CCC(C(=O)Nc3ccc(C(F)(F)F)cc3[N+](=O)[O-])CC2)cc1`, under setting [1], the inhibition worked out at 13.7%.

Turning to `O=Cc1ccc(N2CCC(C(=O)Nc3ccc(-n4cccn4)cc3)CC2)cc1`, under setting [1], the inhibition is 12.6%.

Take `O=Cc1ccc(N2CCC(C(=O)NCc3ccc(C(F)(F)F)nc3)CC2)cc1`: the inhibition under setting [1] amounted to 14.9%.

With `O=C(N[C@H]1CCNC1=O)c1cc(Cl)ccc1NS(=O)(=O)c1ccc(Oc2ccccc2Cl)cc1`, the inhibition was determined as 30.3% (Thailand/16681/1984, Concentration 49.5 uM, Number of replicates 2.0, Standard deviation 0.36576586141779044 %); 51.8% (Thailand/16681/1984, Concentration 99.01 uM, Number of replicates 2.0, Standard deviation 0.2318278972972024 %); 18.9% (Thailand/16681/1984, Concentration 198.0 uM, Number of replicates 2.0, Standard deviation 0.7755829345495912 %).

`O=Cc1ccc(N2CCC(C(=O)NCc3nc(-c4ccccn4)no3)CC2)cc1`: the inhibition under setting [1] stood at 14.7%.

Consider `O=C(NCc1ccc2[nH]cnc2c1)[C@@]1(c2ccc(F)cc2)CCCNC1`, for which the inhibition (Thailand/16681/1984, Concentration 50.0 uM, Number of replicates 2.0, Standard deviation 0.8036935759540536 %) turned out to be 1.49%; the inhibition (Thailand/16681/1984, Concentration 100.0 uM, Number of replicates 2.0, Standard deviation 0.5451893366540629 %) is 0.924%; the inhibition (Thailand/16681/1984, Concentration 200.0 uM, Number of replicates 2.0, Standard deviation 0.16529100472784208 %) stood at 1.69%.

On to `Cc1cc(CO)c2cccc(Cc3cccc(NC(=O)c4cccc(Cn5cncn5)c4)c3)c2n1`, for which the inhibition is, setting by setting: (Thailand/16681/1984, Concentration 49.95 uM, Number of replicates 2.0, Standard deviation 0.03445572300723204 %) -2.36%; (Thailand/16681/1984, Concentration 99.9 uM, Number of replicates 2.0, Standard deviation 1.2505418184916173 %) 1.37%.

Take `CNC(=O)C1(C)CCN(C(=O)C2CCN(c3ccc(C=O)cc3)CC2)CC1`: the inhibition under setting [1] was determined as 13.1%.

As for `NCc1cccc(NC(=O)c2cccc(NC(=O)OCc3ccccc3)n2)c1`, the inhibition is, setting by setting: (Thailand/16681/1984, Concentration 49.5 uM, Number of replicates 2.0, Standard deviation 2.6942952851224518 %) -4.63%; (Thailand/16681/1984, Concentration 99.01 uM, Number of replicates 2.0, Standard deviation 2.660477496814281 %) -4.61%; (Thailand/16681/1984, Concentration 198.0 uM, Number of replicates 2.0, Standard deviation 1.4247947815728461 %) -5.3%.

Turning to `CC(C)c1ccc2c(c1)CC[C@H]1[C@](C)(CNC(=O)C3CCN(c4ccc(C=O)cc4)CC3)CCC[C@]21C`, the inhibition under setting [1] stood at 13.6%.

In the case of `O=Cc1ccc(N2CCC(C(=O)NCCc3ccc(Cl)cc3Cl)CC2)cc1`, under setting [1], the inhibition was found to be 9.31%.

Take `Cn1cc(CN)c(NS(=O)(=O)c2ccc(Oc3ccccc3)cc2)n1`: the inhibition runs as follows: (Thailand/16681/1984, Concentration 49.5 uM, Number of replicates 2.0, Standard deviation 0.6848191905191987 %) -3.59%; (Thailand/16681/1984, Concentration 99.01 uM, Number of replicates 2.0, Standard deviation 2.0059841439104287 %) -3.49%; (Thailand/16681/1984, Concentration 198.0 uM, Number of replicates 2.0, Standard deviation 0.9540026825885767 %) -3.42%.
